{
  "source": "PubChem BioAssay AID485281",
  "about": "(National Center for Advancing Translational Sciences (NCATS), 2010)",
  "note": "About 260 (0.074%) of roughly 350,000 compounds were called active. The inconclusive results got no clear call from the source; some entries with a clear call stand among them for comparison. Calls come from the whole dose curve; as a rule, active = well fitted inhibition curve with a large enough effect; inconclusive = small, poorly fitted or top-dose-only effect; inactive = no such curve, though single readings can be large or run the other way. Where the call is inconclusive, the potency comes from a doubtful curve fit. % is set by controls: 0 for no effect and ±100 for the full control effect; potency is the fitted concentration of half-maximal effect; tags give direction and shape of the fitted curve.",
  "data": [
    {"target": "Ferritin light chain (Equus caballus) (UniProt P02791)", "sequence (P02791 whole entry, looked up)": "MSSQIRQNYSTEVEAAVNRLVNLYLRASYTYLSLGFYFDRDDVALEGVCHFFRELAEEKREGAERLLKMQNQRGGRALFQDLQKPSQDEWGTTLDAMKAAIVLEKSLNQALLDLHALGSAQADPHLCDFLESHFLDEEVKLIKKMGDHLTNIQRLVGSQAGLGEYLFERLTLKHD", "assay": "qHTS Assay for Identification of Novel General Anesthetics; note: nearly all actives have a fitted effect of over 20% in size", "conditions": "apoferritin/1-aminoanthracene competitive binding, fluorescence; activity change, negative = displacement: at 77.5 µM (top of the series)", "method_in_brief": "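Read-out: endpoint 1-AMA fluorescence, excitation 380 nm and emission 535 nm, after compounds sit 10 min at room temperature with 10 uM horse-spleen apoferritin in 50% saturated 1-AMA/PBS. Values come from four-parameter Hill fits.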", "values": [
      {"compound": "O=C(OCCN1C(=O)c2ccccc2C1=O)c1cccc(OC(F)F)c1", "Potency": "inconclusive: 25.1 µM [inhibitor, partial curve]"},
      {"compound": "CC(=O)c1ccc(NC(=S)Nc2ccn(Cc3ccc(Br)cc3)n2)cc1", "Potency": "inconclusive: 22.4 µM [inhibitor, partial curve]"},
      {"compound": "CCOc1ccc(CNC(=O)CSc2nnc(C)c3c(C)n(-c4ccccc4)nc23)cc1", "Potency": "inconclusive: 35.5 µM [inhibitor, single point]"},
      {"compound": "CC(C)C1Oc2ccccc2N(CC(=O)N(Cc2ccccn2)CC2CCCO2)C1=O", "note": "(centres undefined)", "activity change, negative = displacement": "inactive: -11.8%"},
      {"compound": "Cc1cc(C(F)F)n2ncc(C(=O)NCc3ccccc3C(F)(F)F)c2n1", "Potency": "inconclusive: 35.5 µM [inhibitor, partial curve]"},
      {"compound": "O=C(Nc1ccc(F)cc1F)c1ccc(COc2c(F)c(F)cc(F)c2F)o1", "Potency": "inconclusive: 39.8 µM [inhibitor, partial curve]"},
      {"compound": "CCC1(C)OC(=O)NN(c2ccc(C)cc2)C1(C)O", "note": "(centres undefined)", "Potency": "inconclusive: 15.8 µM [inhibitor, single point]"},
      {"compound": "CCc1cccc(OCCCn2ccnc2)c1", "Potency": "inconclusive: 50.1 µM [inhibitor, single point]"},
      {"compound": "CC(C)(C)c1cc(NC(=O)Nc2ccc(Cl)cc2Cl)no1", "Potency": "inconclusive: 31.6 µM [inhibitor, partial curve]"},
      {"compound": "CCOc1cccc(CNc2ccc(O)cc2)c1OCc1ccc(Cl)cc1Cl", "Potency": "inconclusive: 15.8 µM [inhibitor, partial curve]"},
      {"compound": "Cc1ccc(Oc2ccc(NC(=O)CSc3n[nH]c(N)n3)cc2)cc1", "Potency": "inconclusive: 35.5 µM [inhibitor, partial curve]"},
      {"compound": "Cc1cc(C)nc(SCC(=O)Nc2ccc(S(=O)(=O)N3CCCCC3)cc2)n1", "Potency": "inconclusive: 28.2 µM [inhibitor, partial curve]"},
      {"compound": "O=C(O)Cc1ccc(N=Cc2c(O)ccc3ccccc23)cc1", "Potency": "inconclusive: 39.8 µM [inhibitor, partial curve]"},
      {"compound": "CCCc1c(C)c2ccc(O)c(CN3CCN(c4ccc(F)cc4)CC3)c2oc1=O", "activity change, negative = displacement": "inactive: -3.09%"},
      {"compound": "COc1cc(CN2CCNC(=O)C2CC(=O)NCCCC2CCCC2)cc(OC)c1", "note": "(centres undefined)", "Potency": "inconclusive: 31.6 µM [inhibitor, partial curve]"},
      {"compound": "CCN(c1ccccc1)c1ncnc2c1cnn2-c1ccc(C)cc1C", "activity change, negative = displacement": "inactive: -15.5%"},
      {"compound": "CCOC(=O)C1=C(O)c2ccccc2C(=O)/C1=C\\c1ccc(CC)cc1", "Potency": "inconclusive: 22.4 µM [inhibitor, partial curve]"},
      {"compound": "Cc1ccc(CSc2nnc(-c3cccnc3)o2)cc1", "Potency": "inconclusive: 35.5 µM [inhibitor, single point]"},
      {"compound": "O=C(CC1C(=O)NCCN1Cc1c(F)cccc1Cl)NCCC1=CCCCC1", "note": "(centres undefined)", "Potency": "inconclusive: 20 µM [inhibitor, partial curve]"},
      {"compound": "N#CC1=C(N)N=C(SCc2cccc3ccccc23)C(C(N)=O)C12CCCCC2", "note": "(centres undefined)", "Potency": "inconclusive: 44.7 µM [inhibitor, partial curve]"},
      {"compound": "COc1ccc(-c2nc(CN(CC3CCC(=O)N3)C(C)C)c(C)o2)c(C)c1C", "note": "(centres undefined)", "Potency": "inconclusive: 28.2 µM [inhibitor, partial curve]"},
      {"compound": "CC(C)n1c(CN(C)c2ccccc2)nc2ccccc21", "Potency": "inconclusive: 35.5 µM [inhibitor, partial curve]"},
      {"compound": "Cc1c(C(N)=O)c(N)c(C(=O)c2ccccc2)n1-c1ccccc1", "Potency": "inconclusive: 28.2 µM [inhibitor, partial curve]"},
      {"compound": "Cc1ccc(C)c(Nc2nc3c(S(=O)(=O)c4ccc(C(C)C)cc4)nnn3c3ccsc23)c1", "activity change, negative = displacement": "inactive: -13.2%"},
      {"compound": "COc1ccccc1Oc1nc(-c2cccnc2)nc2ccccc12", "Potency": "inconclusive: 39.8 µM [inhibitor, single point]"},
      {"compound": "Cc1ccc(NS(=O)(=O)c2cc(NC(=O)c3cc(=O)[nH]c(=O)[nH]3)ccc2Cl)c(C)c1", "Potency": "inconclusive: 50.1 µM [inhibitor, single point]"},
      {"compound": "Cc1ccc(C)c(SCC(=O)c2ccc[nH]2)c1", "Potency": "inconclusive: 20 µM [inhibitor, partial curve]"},
      {"compound": "CC1COc2ccccc2N1C(=O)c1ccccc1Cl", "note": "(centres undefined)", "Potency": "inconclusive: 50.1 µM [inhibitor, single point]"},
      {"compound": "CC1CCCN(c2ccc(F)cc2N)C1", "note": "(centres undefined)", "Potency": "inconclusive: 35.5 µM [inhibitor, partial curve]"},
      {"compound": "O=C(O)c1ccccc1C(=O)Nc1ccc(Oc2cccc3ccccc23)cc1", "Potency": "inconclusive: 14.1 µM [inhibitor, partial curve]"},
      {"compound": "Cc1ccc2c(c1)N(CC(=O)NC1CCCCC1)C(=O)c1cccnc1O2", "Potency": "inconclusive: 56.2 µM [inhibitor, partial curve]"},
      {"compound": "Cc1ccc(C(=O)Nc2cccc(C(=O)N/N=C/c3ccccc3F)c2)cc1", "Potency": "inconclusive: 20 µM [inhibitor, partial curve]"},
      {"compound": "Fc1cc(Br)ccc1NC(=S)NCCc1ccccc1", "Potency": "inconclusive: 31.6 µM [inhibitor, partial curve]"},
      {"compound": "COc1ccc(CN2C(=O)C(C)Oc3ccccc32)cc1", "note": "(centres undefined)", "Potency": "inconclusive: 28.2 µM [inhibitor, partial curve]"},
      {"compound": "Cc1cccc(NC(=S)Nc2ccc(Cl)c(Cl)c2)c1", "Potency": "inconclusive: 28.2 µM [inhibitor, partial curve]"},
      {"compound": "Nc1c(Cl)nc(-c2ccccc2)nc1Cl", "Potency": "inconclusive: 28.2 µM [inhibitor, single point]"},
      {"compound": "CCOC(=O)c1c(-c2ccc(C)o2)csc1NC(=O)CSc1nnc(C)s1", "Potency": "inconclusive: 10 µM [inhibitor, partial curve]"},
      {"compound": "Cn1c(-c2ccccc2O)cc2ccccc21", "Potency": "inconclusive: 22.4 µM [inhibitor, single point]"},
      {"compound": "COc1ccc(/C=C/C(=O)c2cc(F)ccc2OC(=O)c2ccccc2OC)cc1OC", "Potency": "inconclusive: 31.6 µM [inhibitor, partial curve]"},
      {"compound": "CCN(CC)C(=O)Oc1ccc2c(=O)c(-c3ccc(OC)cc3)coc2c1", "Potency": "inconclusive: 25.1 µM [inhibitor, partial curve]"},
      {"compound": "COc1ccc(N2CCN(C(=O)c3cc4ccc5cccnc5c4[nH]3)CC2)cc1", "Potency": "inconclusive: 56.2 µM [inhibitor, single point]"},
      {"compound": "CCCCCCOC(=O)C1=C(C)NC(=O)NC1c1ccc(O)cc1", "note": "(centres undefined)", "Potency": "inconclusive: 39.8 µM [inhibitor, partial curve]"},
      {"compound": "CC1(C)CCC2(C(=O)O)CC[C@]3(C)C(=CCC4[C@]5(C)CCC(O)C(C)(C)C5C(O)C[C@]43C)C2C1", "note": "(some centres undefined)", "activity change, negative = displacement": "inactive: -6.04%"},
      {"compound": "O=C(/C=C/c1ccco1)NCC(=O)N/N=C/c1ccc([N+](=O)[O-])cc1", "Potency": "inconclusive: 39.8 µM [inhibitor, partial curve]"},
      {"compound": "CCCCCn1c(=O)[nH]c2cc(C(=O)N3CCN(c4cccc(C)c4)C(C)C3)ccc2c1=O", "note": "(centres undefined)", "Potency": "inconclusive: 14.1 µM [inhibitor, partial curve]"},
      {"compound": "Cc1cc(C(=O)CSc2nc3ccc(Cl)cc3[nH]2)c(C)n1CC1CCCO1", "note": "(centres undefined)", "Potency": "inconclusive: 11.2 µM [inhibitor, full curve, poor fit]"},
      {"compound": "CCC(C)(C)n1nnnc1C(c1cc2ccc(OC)cc2[nH]c1=O)N1CCCCC1", "note": "(centres undefined)", "Potency": "inconclusive: 17.8 µM [inhibitor, partial curve]"},
      {"compound": "Cc1ccc(C(=O)NCC(=O)OCC(=O)c2ccc3c(c2)NC(=O)CO3)cc1", "Potency": "inconclusive: 14.1 µM [inhibitor, partial curve]"},
      {"compound": "CCn1cc(C(=O)NCc2ccccc2OC)c(=O)c2cc(S(=O)(=O)N3CCCCC3)ccc21", "Potency": "inconclusive: 1.41 µM [inhibitor, full curve, poor fit]"},
      {"compound": "CCn1c(SCC(=O)N/N=C/C=C\\c2ccccc2[N+](=O)[O-])nnc1-c1ccccc1", "Potency": "inconclusive: 35.5 µM [inhibitor, partial curve]"},
      {"compound": "Cc1ncsc1CCOC(=O)c1ccc(Cl)cc1", "Potency": "inconclusive: 31.6 µM [inhibitor, partial curve]"},
      {"compound": "CCn1c(=O)cc(SCC(=O)NCCc2ccc(Cl)cc2)c2ccccc21", "Potency": "inconclusive: 44.7 µM [inhibitor, partial curve]"},
      {"compound": "Cc1onc(-c2c(Cl)cccc2Cl)c1C(=O)N=S(C)(=O)c1ccccc1", "note": "(centres undefined)", "activity change, negative = displacement": "inactive: -2.45%"},
      {"compound": "COc1ccc(CC(=O)OCC(=O)NCc2ccc(Cl)cc2)cc1", "activity change, negative = displacement": "inactive: -13.8%"},
      {"compound": "CC1=CC(C)(C)N(C(=O)CSc2nnc(-c3ccccc3)o2)c2ccc(C)cc21", "Potency": "inconclusive: 3.55 µM [inhibitor, partial curve]"},
      {"compound": "COc1cc(N(C(=O)Cc2cccs2)C(C(=O)NC2CCCCC2)c2cccc(OC)c2OC)ccc1-n1cnnn1", "note": "(centres undefined)", "activity change, negative = displacement": "inactive: -6.67%"},
      {"compound": "O=C(OCCN(C1=NS(=O)(=O)c2ccccc21)c1ccc(Cl)cc1)c1ccco1", "Potency": "inconclusive: 31.6 µM [inhibitor, partial curve]"},
      {"compound": "CCOC(=O)c1cc2c(C)n(-c3ccc(OCC)cc3)c(C)c2ccc1=O", "Potency": "inconclusive: 39.8 µM [inhibitor, partial curve]"},
      {"compound": "Cc1cc(C)cc(OCCCOc2cccc3cccnc23)c1", "Potency": "inconclusive: 35.5 µM [inhibitor, partial curve]"},
      {"compound": "O=C1NC(c2cccc([N+](=O)[O-])c2)Oc2ccccc21", "note": "(centres undefined)", "Potency": "inconclusive: 22.4 µM [inhibitor, single point]"},
      {"compound": "CN1CCN(CCCNC(=O)c2ccc(/C=C3\\Oc4ccccc4N(Cc4ccccc4F)C3=O)cc2)CC1", "activity change, negative = displacement": "inactive: 1.33%"},
      {"compound": "Cc1ccc(-c2ccc(CCC(=O)O)n2-c2cccc(O)c2)cc1", "Potency": "inconclusive: 35.5 µM [inhibitor, partial curve]"},
      {"compound": "COc1ccc(-c2ccc(=O)n(CC(=O)Nc3ccc(C)cc3C)n2)cc1", "Potency": "inconclusive: 12.6 µM [inhibitor, partial curve]"},
      {"compound": "O=C1c2ccccc2C(=O)c2c1cccc2N1CCCC1", "Potency": "inconclusive: 25.1 µM [inhibitor, partial curve]"}
    ]}
  ]
}
